Our source for the TetR repression strength values is a collection of fitness landscapes (doi:10.1038/s41467-024-54723-y).

Whole data set: some 18,000 sequences, median “TetR repression strength (sort-seq, GFP reporter)” near 0.23, cut for the highest 2% near 0.68. Some of the results follow.

The assay concerns the target TetR (class B, Tn10) (UniProt P04483). Kind of assay: TetR repression strength (sort-seq, GFP reporter) (relative to tetO2 = 1); higher = stronger repression. The conditions noted are these: E. coli. The procedure, abridged: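 In LB with 50 µg/mL chloramphenicol, E. coli SIG10-MAX holding a low-copy library with eight randomized operator positions between a constitutive promoter and sfGFP, plus constitutive TetR, grew for 5 h at 37 °C. FACS then sorted 10^6 cells into 13 fluorescence bins for Illumina sequencing of each bin. Repression strength equals the top bin index plus one less the read-weighted mean bin, normalized to the unaltered operator. Values from three independent transformations were averaged when reads were ≥30 in every replicate and the CV was ≤0.5.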
Chain of UniProt P04483 (P04483 whole entry): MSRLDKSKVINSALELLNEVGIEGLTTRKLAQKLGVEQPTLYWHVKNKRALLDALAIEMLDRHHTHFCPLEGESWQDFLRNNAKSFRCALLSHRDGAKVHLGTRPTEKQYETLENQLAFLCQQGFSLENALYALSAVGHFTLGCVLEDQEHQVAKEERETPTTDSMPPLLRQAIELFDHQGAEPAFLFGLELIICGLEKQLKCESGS
Take TCCCCGGTAGTCGGGGAGA: the TetR repression strength was determined as 0.247. Then TCCCAGCAAGTTACTGAGA, with 0.104; and TCCCGCGTAGTAGTCGAGA, with 0.33. Then TCCCTGGTAGTCTTTGAGA, with 0.23; and TCCCAGTTAGTATAGGAGA, with 0.122. As for TCCCAAGGAGTTGACGAGA, the TetR repression strength came to 0.592.

TCCCGTACAGTTGGAGAGA returned a TetR repression strength of 0.248. In the case of TCCCTTGTAGTTTATGAGA it was 0.339; in that of TCCCTGCCAGTACCGGAGA, 0.333. Then TCCCCTAGAGTTAGAGAGA, with 0.349; and TCCCTAATAGTTGGAGAGA, with 0.023; and TCCCAATCAGTCCTGGAGA, with 0.16.

As for TCCCTGGCAGTGACTGAGA, the TetR repression strength was 0.165. With TCCCAGAAAGTTAATGAGA, the TetR repression strength is 0.563.

Regarding TCCCCCATAGTGTTTGAGA, the TetR repression strength was found to be 0.311. For the sequence TCCCGGATAGTTCTGGAGA, the TetR repression strength stood at 0.104. TCCCGTCAAGTTTGTGAGA showed a TetR repression strength of 0.0335. TCCCACTCAGTGGCCGAGA returned a TetR repression strength of 0.378. Take TCCCTTTAAGTACTAGAGA: the TetR repression strength was found to be 0.152. For the sequence TCCCGCTAAGTTCAGGAGA, the TetR repression strength turned out to be 0.238.

For TCCCAAGCAGTGAGGGAGA, the TetR repression strength turned out to be 0.134. In the case of TCCCTTAGAGTTGGAGAGA it was 0.484; in that of TCCCACACAGTTGCAGAGA, 0.333; in that of TCCCCGTGAGTTAGGGAGA, 0.21. Then TCCCGTGCAGTTGCTGAGA, with 0.181; and TCCCAACGAGTCGCTGAGA, with 0.364; and TCCCTAAGAGTGCAGGAGA, with 0.0907.

Sequence TCCCCTGGAGTCGGGGAGA yielded a TetR repression strength of 0.222.

Consider TCCCGTAAAGTGGGTGAGA, for which the TetR repression strength was found to be 0.315. Then TCCCCTGGAGTGGGTGAGA, with 0.241; and TCCCGACAAGTAGCGGAGA, with 0.175; and TCCCGGTGAGTGCGCGAGA, with 0.177. In the case of TCCCATTAAGTGAGAGAGA, the TetR repression strength worked out at 0.478.

TCCCGTCGAGTGGTAGAGA registered a TetR repression strength of 0.426. Take TCCCATGTAGTTCTAGAGA: the TetR repression strength is 0.259.

The sequence TCCCGCTTAGTGATCGAGA yielded a TetR repression strength of 0.575.

In turn, TCCCCGTGAGTGTGGGAGA had a TetR repression strength of 0.252. For TCCCGGGAAGTTGGGGAGA, the TetR repression strength was found to be 0.141. TCCCCTAGAGTCGATGAGA had a TetR repression strength of 0.271. Then TCCCAGCAAGTCAGGGAGA, with 0.217; and TCCCGCGGAGTCGCTGAGA, with 0.337. In the case of TCCCTATTAGTTCTCGAGA it was 0.285; in that of TCCCTCGGAGTCACAGAGA, 0.247. Then TCCCGAGCAGTATCGGAGA, with 0.138; and TCCCGACGAGTCCGAGAGA, with 0.309. As for TCCCTGCCAGTCGGGGAGA, the TetR repression strength came out at 0.268.

TCCCACCAAGTGACTGAGA displayed a TetR repression strength of 0.499. Sequence TCCCGAAGAGTCCCTGAGA yielded a TetR repression strength of 0.366. Then TCCCTTCTAGTTACGGAGA, with 0.26; and TCCCGTGCAGTGTACGAGA, with 0.297. In the case of TCCCGCTGAGTACAGGAGA it was 0.205. TCCCAGAGAGTGGTGGAGA registered a TetR repression strength of 0.298. On to TCCCGAGGAGTTCTCGAGA, for which the TetR repression strength came to 0.251. In turn, TCCCTACAAGTGATCGAGA displayed a TetR repression strength of 0.593. In the case of TCCCCACGAGTACACGAGA it was 0.253. With TCCCGTACAGTTGATGAGA, the TetR repression strength is 0.2. Then TCCCCAGGAGTTTATGAGA, with 0.401; and TCCCATTTAGTAAATGAGA, with 0.19. Then TCCCGAGAAGTGCGGGAGA, with 0.231. For TCCCTCACAGTGGAGGAGA, the TetR repression strength came to 0.221.

As to TCCCTCACAGTGCATGAGA, the TetR repression strength came out at 0.304. Then TCCCCGGCAGTCACTGAGA, with 0.198; and TCCCACAAAGTGAAAGAGA, with 0.407; and TCCCCGGGAGTAGCGGAGA, with 0.0558. Then TCCCATTTAGTACTTGAGA, with 0.0724; and TCCCAGGTAGTGAATGAGA, with 0.206. Then TCCCAGTTAGTTTCAGAGA, with 0.262.

TCCCCGAGAGTCGGTGAGA had a TetR repression strength of 0.284. Then TCCCGAGAAGTATGTGAGA, with 0.134; and TCCCTGTCAGTACGCGAGA, with 0.311; and TCCCGGTAAGTAACGGAGA, with 0.201.

On to TCCCCTTAAGTTCGCGAGA, for which the TetR repression strength is 0.567.

TCCCCTAGAGTGTCGGAGA returned a TetR repression strength of 0.384. Consider TCCCTATAAGTTGTGGAGA, for which the TetR repression strength turned out to be 0.201. As to TCCCCCCGAGTGCTGGAGA, the TetR repression strength came out at 0.344. In the case of TCCCGTGGAGTCTGCGAGA it was 0.0296. Then TCCCCGCAAGTGTCCGAGA, with 0.334; and TCCCTATCAGTTACAGAGA, with 0.707; and TCCCCAAAAGTGGTGGAGA, with 0.247. In the case of TCCCGCGGAGTATTTGAGA it was 0.333; in that of TCCCTTCAAGTTAAAGAGA, 0.252; in that of TCCCGTACAGTTTTGGAGA, 0.42. Regarding TCCCTAGGAGTCCTAGAGA, the TetR repression strength was 0.342. Then TCCCGTCAAGTCGTAGAGA, with 0.26; and TCCCGATCAGTCGTAGAGA, with 0.354.

Sequence TCCCTCCAAGTGTATGAGA gave a TetR repression strength of 0.35. Then TCCCTGTAAGTGGTAGAGA, with 0.466; and TCCCTGGAAGTGCTGGAGA, with 0.394. Take TCCCTTATAGTCCCCGAGA: the TetR repression strength stood at 0.378. With TCCCAAAGAGTTGGGGAGA, the TetR repression strength turned out to be 0.139.

TCCCGGACAGTCGGAGAGA yielded a TetR repression strength of 0.165.

Regarding TCCCTCCAAGTGCCGGAGA, the TetR repression strength stood at 0.075. Then TCCCGAAAAGTGGGAGAGA, with 0.0419; and TCCCGTCTAGTGGATGAGA, with 0.141; and TCCCCACTAGTGTGTGAGA, with 0.104.

The sequence TCCCTATCAGTGGTCGAGA came in with a TetR repression strength of 0.532. Take TCCCGGATAGTTTAAGAGA: the TetR repression strength came out at 0.389. Then TCCCAAGCAGTACTTGAGA, with 0.226; and TCCCAGGAAGTGCAGGAGA, with 0.288; and TCCCAATAAGTAGTAGAGA, with 0.35. On to TCCCTTTTAGTTCTTGAGA, for which the TetR repression strength is 0.394. For the sequence TCCCTTGGAGTGGCTGAGA, the TetR repression strength was found to be 0.434.
